Screen size: about 220,000 compounds; about 16,000 (7.3%) were called active. The inconclusive results got no clear call from the source; some entries with a clear call stand among them for comparison. Calls come from the whole dose curve; as a rule, active = well fitted inhibition curve with a large enough effect (not every such curve was filed as active); inconclusive = small, poorly fitted or top-dose-only effect, or another doubt; inactive = no such curve, though single readings can be large or run the other way. Potencies of inconclusive entries are left out as doubtful fits.
Each compound was assayed against Aldehyde dehydrogenase 1A1 (Homo sapiens) (UniProt P00352) (assay: qHTS Assay for Inhibitors of Aldehyde Dehydrogenase 1 (ALDH1A1)). Settings: Purified ALDH1A1, NADH fluorescence, propionaldehyde substrate; series mostly up to 75.3 µM; activity, negative = inhibition: at the top concentration.
Potency is the fitted concentration of half-maximal effect; tags give direction and shape of the fitted curve.
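Throughout, for activity, negative = inhibition: plate controls were no enzyme wells and a reference inhibitor.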

Chain of UniProt P00352 (P00352 whole entry, looked up): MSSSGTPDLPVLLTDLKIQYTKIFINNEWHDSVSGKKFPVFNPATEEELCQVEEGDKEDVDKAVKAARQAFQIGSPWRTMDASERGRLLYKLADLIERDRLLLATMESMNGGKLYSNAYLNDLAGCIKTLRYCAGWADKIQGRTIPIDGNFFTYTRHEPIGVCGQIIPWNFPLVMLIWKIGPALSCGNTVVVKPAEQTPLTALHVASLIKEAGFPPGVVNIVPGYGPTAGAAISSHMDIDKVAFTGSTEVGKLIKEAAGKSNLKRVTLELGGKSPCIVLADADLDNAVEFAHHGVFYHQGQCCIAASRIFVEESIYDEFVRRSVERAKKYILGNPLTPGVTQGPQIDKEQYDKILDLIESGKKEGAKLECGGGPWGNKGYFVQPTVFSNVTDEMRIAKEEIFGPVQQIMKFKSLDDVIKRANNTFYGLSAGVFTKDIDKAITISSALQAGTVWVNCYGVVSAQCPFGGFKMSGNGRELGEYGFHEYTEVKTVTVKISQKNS

For COc1ccc(N2C(=O)CS/C2=C\[N+](=O)[O-])cc1, which Potency is on record?
Its Potency is inconclusive [inhibitor, single point].

Which Potency does the source give for NC(=S)N=Nc1c(O)n(Cc2ccccc2)c2ccccc12 here?
Its Potency is active: 2.51 µM.

Which Potency does the source give for CCOC(=O)c1c(/N=C/c2cccc([N+](=O)[O-])c2O)sc(C)c1C here?
The Potency was active: 12.6 µM.

For CCC(C)(C)n1nnnc1C(c1cc2cccc(C)c2[nH]c1=O)N1CCCC1 (stereo not drawn), which Potency is on record?
The Potency was inconclusive [inhibitor, single point].

Cc1nc(NC(=O)/C=C/c2ccco2)sc1C was tested. Which “activity, negative = inhibition” value did it give?
Its value is inactive: -12.5%.

With CC12CN(C(=O)c3ccccc3)C3(C#N)CC1CCC23C (stereo not drawn) as the compound, how does the Potency read?
Its Potency is inconclusive [inhibitor, single point].

For CC(C)OC(=O)CSc1nc(N)c(C#N)cc1C#N, which Potency is on record?
The Potency was inconclusive [inhibitor, partial curve].

For CCOc1ccc2nc3c(cc2c1)CN(CCOC)C(=NC)S3, which Potency is on record?
The Potency was inconclusive [inhibitor, single point].

Which “activity, negative = inhibition” value does the source give for CC(=O)Nc1ccc(S(=O)(=O)NCc2csc(C)n2)cc1 here?
The value was inactive: -6.52%.

Which Potency does the source give for COc1ccc(-c2cc(C(F)(F)F)n3nc(C(=O)O)nc3n2)cc1 here?
The Potency was inconclusive [inhibitor, single point].

With CCCC(=O)Nc1nnc(C2CCCO2)s1 (stereo not drawn) as the compound, how does the Potency read?
The Potency was inconclusive [inhibitor, single point].

CCc1cc(CC)c(/C=N/NC(N)=O)c(CC)c1 was tested. Which “activity, negative = inhibition” value did it give?
Its value is inactive: 2.64%.

How did the Potency turn out when Cn1c(CCc2nc3ccccc3[nH]2)nnc1SCC#N was run?
Its Potency is inconclusive [inhibitor, single point].

With Cc1cccc(/C=C2\Oc3cc(OS(C)(=O)=O)ccc3C2=O)c1 as the compound, how does the Potency read?
The Potency was inconclusive [inhibitor, single point].

Which “activity, negative = inhibition” value does the source give for O=C(CN1CCCC1)Nc1nnc(-c2cccs2)s1 here?
Its value is inactive: -0.41%.

For CCn1c(SCC(=O)NCCc2ccccc2)nc2sc3c(c2c1=O)CCN(C)C3, which Potency is on record?
Its Potency is inconclusive [inhibitor, single point].

How did the Potency turn out when Cc1ccc2cc(C(=O)O)c(C)nc2c1 was run?
The Potency was inconclusive [inhibitor, single point].

How did the Potency turn out when CN(C)CCCNS(=O)(=O)c1ccc(Cl)s1 was run?
Its Potency is inconclusive [inhibitor, partial curve].

How did the Potency turn out when O=C(c1cc2c(F)cccc2s1)N1CCCC1 was run?
The Potency was inconclusive [inhibitor, single point].

Which Potency does the source give for CN(C)S(=O)(=O)c1cccc(C(=O)Nc2ccccc2[N+](=O)[O-])c1 here?
The Potency was inconclusive [inhibitor, partial curve].

With OC[C@@H]1O[C@H](n2cnc3c(/C=C(\O)c4ccccc4)ncnc32)[C@H](O)[C@@H]1O as the compound, how does the activity, negative = inhibition read?
The activity, negative = inhibition was inactive: -6.67% [at 13.5 µM].

With Cc1ccccc1NC(=S)N1CCCN(Cc2ccc(F)cc2)C1 as the compound, how does the Potency read?
The Potency was inconclusive [inhibitor, single point].

For CCCCn1c(SCC(=O)NCc2ccco2)nc2c(sc3ccccc32)c1=O, which Potency is on record?
Its Potency is inconclusive [inhibitor, partial curve].

C=CCc1cc(Cl)ccc1OCCN1CC(C)OC(C)C1 (stereo not drawn) was tested. Which Potency did it give?
Its Potency is inconclusive [inhibitor, single point].

For COc1ccc(-n2nnc3c(SCc4ccccc4)ncnc32)cc1, which Potency is on record?
The Potency was active: 12.6 µM.

c1ccc(-c2ccc(C3CCCN3)cc2)cc1 (stereo not drawn) was tested. Which “activity, negative = inhibition” value did it give?
Its value is inactive: -0.251%.

For COc1ccc(OCc2cc(-c3ccc(Cl)cc3)no2)cc1, which “activity, negative = inhibition” value is on record?
The value was inactive: 2.22%.

Which Potency does the source give for COC(=O)C(NNc1ccccc1C)(NC(=O)c1ccc(F)cc1)C(F)(F)F (stereo not drawn) here?
The Potency was inconclusive [inhibitor, single point].

CS(=O)(=O)c1ccc(SCC(=O)NC2CCS(=O)(=O)C2)c([N+](=O)[O-])c1 (stereo not drawn) was tested. Which Potency did it give?
Its Potency is inconclusive [inhibitor, single point].

For O=C1c2cccc3cccc(c23)C(=O)N1CC1CCCO1 (stereo not drawn), which Potency is on record?
Its Potency is inconclusive [inhibitor, partial curve].

With O=C(NCN1C(=O)C2C3C=CC(C3)C2C1=O)Nc1nncs1 (stereo not drawn) as the compound, how does the Potency read?
The Potency was inconclusive [inhibitor, single point].

How did the Potency turn out when CCCCNC(=O)CSc1nc2ccc(N3CCOCC3)cc2c(=O)n1CCc1ccccc1 was run?
Its Potency is inconclusive [inhibitor, partial curve].

Nc1nnc(SCCCC(=O)c2ccc(F)cc2)s1 was tested. Which Potency did it give?
Its Potency is inconclusive [inhibitor, single point].

Cc1cc(C(=O)CSc2nnnn2C)c(C)n1-c1ccc2c(c1)OCCO2 was tested. Which Potency did it give?
Its Potency is inconclusive [inhibitor, partial curve].

Which Potency does the source give for CC(C)c1ccc(-n2cnn(-c3ncccc3[N+](=O)[O-])c2=O)cc1 here?
Its Potency is active: 14.1 µM.

CCOc1ccc(NC(=O)Cn2nnc(C(=O)NCCc3ccc(OC)c(OC)c3)c2N)cc1 was tested. Which Potency did it give?
Its Potency is inconclusive [inhibitor, single point].

For CCOc1cc2c3c(c1)C(C)CC(C)(C)N3C(=O)C2=O (stereo not drawn), which Potency is on record?
The Potency was active: 0.398 µM.

Which Potency does the source give for Cc1cc(C)c2c(N)c(C(=O)c3ccc(Cl)cc3Cl)sc2n1 here?
Its Potency is inconclusive [inhibitor, single point].

How did the “activity, negative = inhibition” value turn out when O=C(c1ccc(Br)s1)N1CCN(c2ncccn2)CC1 was run?
Its value is inactive: -0.397%.

Which Potency does the source give for CCCSc1nnc(Cn2c(=O)sc3ccccc32)n1-c1ccccc1 here?
The Potency was inconclusive [inhibitor, single point].

O=C(COc1cccnc1[N+](=O)[O-])c1ccc(Cl)s1 was tested. Which Potency did it give?
The Potency was active: 0.708 µM.

How did the Potency turn out when CC(C)=C1C2CCC1C1C(=O)N(c3nc(-c4ccccc4)c(C)s3)C(=O)C21 (stereo not drawn) was run?
The Potency was inconclusive [inhibitor, partial curve].

For O=C(c1cnccn1)N1CCC2(CC1)CN(c1ncccn1)C2, which Potency is on record?
Its Potency is inconclusive [inhibitor, partial curve].

With Cc1cccc(CSc2nnnn2-c2ccccc2)c1 as the compound, how does the Potency read?
The Potency was inconclusive [inhibitor, single point].

How did the Potency turn out when O=C1NC(c2ccco2)Nc2ccccc21 (stereo not drawn) was run?
The Potency was inconclusive [inhibitor, partial curve].

O=C(c1cccs1)c1ccc(-c2cccs2)s1 was tested. Which Potency did it give?
Its Potency is inconclusive [inhibitor, partial curve].

Which Potency does the source give for COc1ccc(CC(=O)NC2CCCc3ccccc32)cc1 (stereo not drawn) here?
The Potency was inconclusive [inhibitor, single point].

Which Potency does the source give for O=C(COC(=O)c1ccccc1O)Nc1ncc(Cl)cc1Cl here?
The Potency was inconclusive [inhibitor, single point].

For O=C(CCSc1ccccc1)Nc1nccs1, which Potency is on record?
The Potency was inconclusive [inhibitor, single point].

How did the Potency turn out when COc1ccccc1-n1c(SCC(=O)N2CCCCC2)nc2cccnc21 was run?
The Potency was inconclusive [inhibitor, single point].

For c1cncc(-c2nn3c(Cn4cnc5ccccc54)nnc3s2)c1, which Potency is on record?
The Potency was active: 1 µM.

How did the Potency turn out when O=C(CN1CCN(C2CCCCC2)CC1)Nc1ccccc1-c1ccccc1 was run?
Its Potency is active: 6.31 µM.

Which “activity, negative = inhibition” value does the source give for Cc1ccc(C)c(C(=O)CC2(O)C(=O)N(C)c3ccccc32)c1 (stereo not drawn) here?
Its value is inactive: -6.1%.

With CSCCC(NS(=O)(=O)/C=C/c1ccccc1)C(=O)N1CCC(C)CC1 (stereo not drawn) as the compound, how does the Potency read?
Its Potency is active: 14.1 µM.

For Cc1cc(Cl)ccc1N(CC(=O)NCc1ccc2c(c1)OCO2)S(C)(=O)=O, which “activity, negative = inhibition” value is on record?
Its value is inactive: 2.21%.

Which Potency does the source give for CC1(C)CC(NC(=O)c2coc(=O)c(Br)c2)CC(C)(C)N1 here?
The Potency was inconclusive [inhibitor, single point].

With COC(=O)c1[nH]c2cc(C)ccc2c1NC(=O)CN1CCc2cc(OC)c(OC)cc2C1 as the compound, how does the Potency read?
The Potency was inconclusive [inhibitor, single point].

O=S(=O)(Nc1ccc2c(c1)nc1n2CCN(Cc2ccccc2)C1)c1ccc(Cl)cc1 was tested. Which Potency did it give?
The Potency was inconclusive [inhibitor, single point].

How did the Potency turn out when C=CCn1c(SCc2cc(C(C)=O)ccc2OCC)nc2ccccc2c1=O was run?
Its Potency is active: 2.24 µM.

With COc1ccc(-n2cc3c(-c4cccc(Br)c4)nnc(C)c3n2)cc1 as the compound, how does the “activity, negative = inhibition” value read?
Its value is inactive: -6.52%.

Which “activity, negative = inhibition” value does the source give for O=C(O)CNC1=NCCC1 here?
Its value is inactive: 5.79%.

How did the Potency turn out when CC(C(=O)OCC(=O)c1ccc([N+](=O)[O-])cc1)N1C(=O)C2C3CCC(C3)C2C1=O (stereo not drawn) was run?
The Potency was active: 3.16 µM.

How did the “activity, negative = inhibition” value turn out when Cc1ccc(C)c(N2CCN(C(=O)c3ccc(NS(=O)(=O)c4c(C)noc4C)cc3)CC2)c1 was run?
The value was inactive: -15.7%.

For CCOC(=O)c1sc(NC(=O)C2CC2)nc1C, which “activity, negative = inhibition” value is on record?
The value was inactive: 4.19%.

Which Potency does the source give for O=C(O)CCc1ccc(-c2ccc(Cl)cc2)n1Cc1ccco1 here?
The Potency was inconclusive [inhibitor, single point].

With CCOCCCn1c(=S)[nH]c2cc3c(cc2c1=O)OCO3 as the compound, how does the Potency read?
Its Potency is inconclusive [inhibitor, single point].

With Cc1cc2c(nc1C)CCCN2C[C@@H](C)O/N=C1/[C@H]2CCn3c(=O)n(-c4ccccc4)c(=O)n3[C@H]2[C@H](O)[C@@H]2O[C@H]12 as the compound, how does the Potency read?
The Potency was inconclusive [inhibitor, partial curve].

Which Potency does the source give for CCN(CC)CCNC(=O)c1cc2c(-c3ccc(Cl)cc3)nn(C)c2s1 here?
The Potency was inconclusive [inhibitor, partial curve].

How did the Potency turn out when CC(=O)Nc1nc2ccc(C(=O)NC3CCCCC3)cc2s1 was run?
Its Potency is inconclusive [inhibitor, single point].

With CCOC(=O)c1sc2nc(CC(=O)OC)nc(NCc3ccc(F)cc3)c2c1C as the compound, how does the Potency read?
Its Potency is inconclusive [inhibitor, partial curve].

With COC(CSc1ncnc2c1oc1nc3c(cc12)COC(C)(C)C3)OC as the compound, how does the Potency read?
Its Potency is active: 3.16 µM.

For Cc1cc(O)c(C(C[N+](=O)[O-])c2ccc(Cl)cc2)c(=O)o1 (stereo not drawn), which Potency is on record?
The Potency was inconclusive [inhibitor, single point].

With CC(C)c1ccc(NC(=S)NC2CCN(Cc3ccccc3)CC2)cc1 as the compound, how does the Potency read?
The Potency was inconclusive [inhibitor, partial curve].
